# Assay results as given in PubChem BioAssay AID1030 (National Center for Advancing Translational Sciences (NCATS), 2008).
# Values joined by “and” are separate entries in the source; they are usually repeats but may differ in a detail not shown here. Identical values can stand only once. Out of some 220,000 compounds screened, about 16,000 (7.3%) were called active. The inconclusive results got no clear call from the source; some entries with a clear call stand among them for comparison. Calls come from the whole dose curve; as a rule, active = well fitted inhibition curve with a large enough effect (not every such curve was filed as active); inconclusive = small, poorly fitted or top-dose-only effect, or another doubt; inactive = no such curve, though single readings can be large or run the other way. Potencies of inconclusive entries are doubtful fits and often do not repeat.
# Target: Aldehyde dehydrogenase 1A1 (Homo sapiens) (UniProt P00352)
# Test: qHTS Assay for Inhibitors of Aldehyde Dehydrogenase 1 (ALDH1A1);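 for activity, negative = inhibition: plate controls were no enzyme wells and a reference inhibitor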
# Conditions: Purified ALDH1A1, NADH fluorescence, propionaldehyde substrate; series mostly up to 75.3 µM; activity, negative = inhibition: at the top concentration
# Potency is the fitted concentration of half-maximal effect; tags give direction and shape of the fitted curve.
# UniProt P00352, sequence (P00352 whole entry, looked up): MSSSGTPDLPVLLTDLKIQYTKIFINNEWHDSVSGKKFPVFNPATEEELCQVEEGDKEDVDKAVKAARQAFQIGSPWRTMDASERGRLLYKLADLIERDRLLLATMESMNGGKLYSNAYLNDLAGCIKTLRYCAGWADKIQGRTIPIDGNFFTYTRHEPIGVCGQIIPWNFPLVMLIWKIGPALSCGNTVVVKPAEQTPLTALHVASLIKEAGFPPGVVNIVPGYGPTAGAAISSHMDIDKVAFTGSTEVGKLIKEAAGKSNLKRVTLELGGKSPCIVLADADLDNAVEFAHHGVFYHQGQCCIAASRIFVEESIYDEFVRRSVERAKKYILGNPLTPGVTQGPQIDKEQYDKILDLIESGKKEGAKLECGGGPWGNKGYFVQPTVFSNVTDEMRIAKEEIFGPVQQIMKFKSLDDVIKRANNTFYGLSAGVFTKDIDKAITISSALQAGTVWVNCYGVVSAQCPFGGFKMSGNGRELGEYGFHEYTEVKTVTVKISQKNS
SMILES,"activity, negative = inhibition",Potency
OCCN(CO)CO,inactive: 3.54% [at 13.5 µM],
COC(=O)C1=C(O)/C(=C\c2ccc(CNS(=O)(=O)c3ccccc3)o2)N=C1C,,active: 31.6 µM
O=C(Nc1ccccc1)c1nnsc1S(=O)(=O)c1ccc(Cl)cc1,,active: 2.24 µM
O=C(O)C1C2C=CC(O2)C1C(=O)Nc1ccc2c(c1)OCCO2 (stereo unspecified),,active: 11.2 µM
O=C(Nc1ccc(N2CCN(C(=O)c3ccccc3)CC2)c(Cl)c1)c1cccnc1,inactive: -12.6%,
COCCNc1ncnc2ccc(-c3c(C)noc3C)cc12,,"inconclusive: 17.8 µM [inhibitor, partial curve]"
O=c1c2c3n(c(=O)nc2[nH]n1-c1ccccc1)CCCCC3,,"inconclusive: 44.7 µM [inhibitor, single point]"
COc1ccc(N(C(=O)C2CCCCC2)S(=O)(=O)c2cccc3cccnc23)cc1,,"inconclusive: 15.8 µM [inhibitor, partial curve]"
CC(=O)CCc1oc2ccc(NC(C)=O)cc2c1-c1ccc(C)o1,,"inconclusive: 22.4 µM [inhibitor, single point]"
CCN(CC)CCN1C(=O)C(O)=C(C(=O)c2cccs2)C1c1ccccn1 (stereo unspecified),,active: 17.8 µM
O=C(CSc1nnnn1Cc1ccccc1)c1ccccc1,,"inconclusive: 28.2 µM [inhibitor, single point]"
O=C(O)c1ccc(NS(=O)(=O)c2ccsc2C(=O)O)cc1,inactive: 7.92%,
COC(=O)C1=C(C)NC(=S)NC1/C=C/c1ccccc1 (stereo unspecified),,active: 1.12 µM
CC(=O)N1CCc2cc(S(=O)(=O)NC(Cc3ccccc3)C(=O)NCCN3CCCCC3C)ccc21 (stereo unspecified),inactive: -14.8%,
Cc1nnc(N/N=C/c2ccco2)n1N,inactive: 7.88%,
Cc1ccsc1C(=O)OCc1nc2ccccc2c(=O)[nH]1,inactive: -5.28%,
COc1ccc(OCc2cccc(C(=O)NN)c2)cc1,,active: 0.316 µM
CN(C)CCCSc1nc2ccccc2[nH]1,inactive: 21.3% [at 13.5 µM],
O=C(NC1CCCCC1)c1sc(N2CCOCC2)nc1-c1ccccc1,,"inconclusive: 15.8 µM [inhibitor, partial curve]"
COc1ccc(NC(=O)CC2SC3=NCCN3C2=O)cc1 (stereo unspecified),inactive: -26.2%,
C(=N\n1cnnc1)/c1cn(Cc2ccccc2)c2ccccc12,,active: 12.6 µM
COc1cc(Cl)cc(C2NC(=S)NC(c3ccccc3)=C2C(C)=O)c1OCC(=O)O (stereo unspecified),inactive: -9.68%,
Cc1cc2cc(CN(Cc3nnnn3C3CCCCC3)CC3CCCO3)c(=O)[nH]c2cc1C (stereo unspecified),,"inconclusive: 25.1 µM [inhibitor, single point]"
O=C(NCCCN1CCCC1=O)c1ccc2c(=O)n(Cc3ccco3)c(=S)[nH]c2c1,,active: 12.6 µM
Cc1nnc(SCc2ccccc2)n(N)c1=O,,"inconclusive: 25.1 µM [inhibitor, single point]"
O=C(CSC1=NC2(CCCCC2)N=C1c1ccccc1)Nc1ccc2c(c1)OCCO2,inactive: 37.1%,

SMILES,"activity, negative = inhibition",Potency
CSc1ccccc1C(=O)NCCSC(C)(C)C,inactive: 0.619%,
O=C(N/N=C1/C[C@@H](O)[C@@H](O)[C@@H]2[C@@H]3C(=O)N(Cc4ccccc4)C(=O)[C@H]3CC[C@H]12)OCc1ccccc1,inactive: 13.7% [at 13.5 µM],
CN(C)c1ccc(C(c2nnnn2C(C)(C)C)N2CCN(C(=O)c3ccco3)CC2)cc1 (stereo unspecified),,"inconclusive: 35.5 µM [inhibitor, single point]"
Cc1ccc(C(C)C)cc1OCC(=O)N/N=C/c1ccc2c(c1)OCCO2,,"inconclusive: 39.8 µM [inhibitor, single point]"
CCCn1c(N2CCN(Cc3cccc(C)c3)CC2)nc2c1c(=O)[nH]c(=O)n2C,inactive: -10.1%,
COc1ccc(-c2nnc(SCc3nc4ccccc4s3)n2C(C)C)cc1,,"inconclusive: 25.1 µM [inhibitor, partial curve]"
Cc1ccc(CNC(=O)c2cc3c(=O)n4ccccc4nc3n(Cc3ccco3)c2=N)cc1,,"inconclusive: 25.1 µM [inhibitor, partial curve]"
Cc1ccc(Nc2nc(-c3sc(NC(=O)c4ccccc4)nc3C)cs2)cc1,,active: 20 µM
CCCCCc1nnc(NC(=O)C2COc3ccccc3O2)s1 (stereo unspecified),,"inconclusive: 0.474 µM [inhibitor, full curve]"
O=C(COC(=O)c1c[nH]c(=O)[nH]c1=O)Nc1ccccc1F,,active: 28.2 µM
C/C=C(\C)C(=O)OC1c2c(ccc3ccc(=O)oc23)OC(C)(C)C1OC(C)=O (stereo unspecified),,"inconclusive: 39.8 µM [inhibitor, single point] and inconclusive: 25.1 µM [inhibitor, partial curve]"
CCOCCCNC(=O)C1CCCN1C(=O)Nc1ccccc1[N+](=O)[O-] (stereo unspecified),inactive: -0.479%,
Nc1ccc(-c2nc3ccccc3[nH]2)cc1,,"inconclusive: 28.2 µM [inhibitor, partial curve]"
Cc1ccc(S(=O)(=O)CCNC(=O)Cc2ccc(Cl)cc2)cc1,inactive: 11.9%,
CCOC(=O)c1cnn2c(C(F)(F)F)cc(-c3ccccc3)nc12,inactive: -9.7%,
Cc1nc(SCC(=O)N2CC(=O)Nc3ccccc32)c2c(C)c(C)sc2n1,,"inconclusive: 25.1 µM [inhibitor, single point]"
Cc1ccc(-n2nc(C)c(NC(=O)CCl)c2C)cc1,,"inconclusive: 39.8 µM [inhibitor, single point]"
O=C(Nc1cccc(C(=O)N2CCN(Cc3ccccc3)CC2)c1)c1ccccc1,,"inconclusive: 39.8 µM [inhibitor, single point]"
COc1ccc(-c2cc(-c3ccccc3)n3ncnc3n2)cc1,,"inconclusive: 28.2 µM [inhibitor, partial curve]"
CCN(CC)c1ccc(/C=C(\C#N)C(=O)NCc2ccco2)cc1,,active: 31.6 µM
N#Cc1nc(-c2cccs2)oc1NCc1ccc(Cl)cc1,,"inconclusive: 31.6 µM [inhibitor, partial curve]"
COc1cc(CNCCO)cc(Cl)c1OCc1ccc(Cl)cc1Cl,,"inconclusive: 0.0501 µM [inhibitor, full curve, poor fit]"
COc1ccc(C(=O)N2CCN(Cc3ccccc3C)CC2)cc1OC,,"inconclusive: 20 µM [inhibitor, partial curve]"
COc1ccc(C(C#N)N2N=C(C)CC2(C)C)cc1 (stereo unspecified),,"inconclusive: 35.5 µM [inhibitor, single point]"
COCCCNC(=O)c1c[nH]c2ccc(S(=O)(=O)N3CCC(C)CC3)cc2c1=O,,"inconclusive: 28.2 µM [inhibitor, single point]"
S=c1[nH]nc(-c2ccco2)n1/N=C/c1ccccc1Cl,,active: 10 µM

SMILES,"activity, negative = inhibition",Potency
O=C(COC(=O)c1oc2ccccc2c1COc1ccccc1)NCCN1C(=O)CSC1=O,inactive: -5.78%,
COCC(C)n1c(SCC(=O)N2CCc3ccccc3C2)nc2ccccc2c1=O (stereo unspecified),inactive: -13.4%,
S=C(NCCc1ccccc1)Nc1cnc2ccccc2c1,,"inconclusive: 44.7 µM [inhibitor, single point]"
CS(=O)(=O)N1CCN(c2ccccc2NC(=S)NC(=O)c2ccccc2[N+](=O)[O-])CC1,,active: 0.708 µM
O=C(CSc1ccc(-c2ccccn2)nn1)NCc1ccccc1,inactive: 6.28%,
CN(c1ccccc1)S(=O)(=O)c1cccc(NC(=O)c2cc(=O)c3ccccc3o2)c1,,"inconclusive: 35.5 µM [inhibitor, single point]"
COc1cc(/C=C/C(=O)c2cccc([N+](=O)[O-])c2)cc(OC)c1OC,,active: 25.1 µM
c1ccc(-c2cc3ccccc3nc2N2CCCC2)cc1,,"inconclusive: 44.7 µM [inhibitor, single point]"
O=c1sc2ccccc2n1Cc1ccccc1,inactive: -0.654%,
CN(C)CC(C(=O)c1ccccc1)c1ccccc1 (stereo unspecified),inactive: -3.17%,
O=C(CSc1ccccn1)Nc1cccc([N+](=O)[O-])c1,,"inconclusive: 39.8 µM [inhibitor, single point]"
Cc1cccc(NS(=O)(=O)c2ccc(Br)s2)n1,,"inconclusive: 39.8 µM [inhibitor, single point]"
CCCCC1=CC2=C(c3ccco3)C(=O)C(C)(OC(=O)c3ccc(OC)cc3)C(=O)C2=CN1CC(C)C (stereo unspecified),,"inconclusive: 3.98 µM [inhibitor, single point]"
Cc1cccc(Nc2nc3ccccc3n3nnnc23)c1,,"inconclusive: 37.7 µM [inhibitor, single point]"
Cc1cccc(N2CCN(c3nc4ccccc4n4cnnc34)CC2)c1C,inactive: 63.5%,
COc1ccc(S(=O)(=O)n2oc(=O)cc2-c2ccccc2)cc1,,"inconclusive: 28.2 µM [inhibitor, partial curve]"
COCCN(C(C)=O)c1nnc(-c2ccccn2)s1,,"inconclusive: 31.6 µM [inhibitor, partial curve]"
CCOC(=O)N1CCN(S(=O)(=O)c2ccc(OC)c(Cl)c2Cl)CC1,,"inconclusive: 25.1 µM [inhibitor, partial curve]"
Cc1nn(Cc2ccc(F)cc2)c2sc(C(=O)Nc3ccc(N4CCOCC4)cc3N3CCOCC3)cc12,inactive: -9.76%,
CC(=O)N[C@H]1[C@@H](O[C@@H](C)C(=O)O)[C@H](O)[C@H](CO)O[C@@H]1O,inactive: 5.03% [at 20.9 µM],
CSc1nc(-c2ccccc2F)c(C#N)c(=O)n1C,,"inconclusive: 39.8 µM [inhibitor, single point]"
CS(=O)(=O)C1=NSC2=NC(=O)/C(=C\c3cccn3-c3ccc(Cl)cc3)C(=N)N21,,"inconclusive: 25.1 µM [inhibitor, single point]"
O=C(Cn1c(=O)sc2ccccc21)OC(CCl)CCl,,"inconclusive: 39.8 µM [inhibitor, single point]"
COc1ccc(-c2csc(N3CCN(C(=O)c4ccccc4)CC3)n2)cc1,,"inconclusive: 17.8 µM [inhibitor, partial curve]"
